In PMC4336329 (PLoS ONE, 2015):
The campaign covered roughly 310,000 compounds. About 2,200 (0.71%) showed an effect of 50% or more. Effects have a minus sign here. The list shows a part of the results.

Target: human ether-à-go-go-related gene (hERG) potassium channel (human, UniProt Q12809)
Assay: primary screen, population patch clamp on CHO cells stably expressing hERG

Sequence of human ether-à-go-go-related gene (hERG) potassium channel (Q12809 whole entry, looked up): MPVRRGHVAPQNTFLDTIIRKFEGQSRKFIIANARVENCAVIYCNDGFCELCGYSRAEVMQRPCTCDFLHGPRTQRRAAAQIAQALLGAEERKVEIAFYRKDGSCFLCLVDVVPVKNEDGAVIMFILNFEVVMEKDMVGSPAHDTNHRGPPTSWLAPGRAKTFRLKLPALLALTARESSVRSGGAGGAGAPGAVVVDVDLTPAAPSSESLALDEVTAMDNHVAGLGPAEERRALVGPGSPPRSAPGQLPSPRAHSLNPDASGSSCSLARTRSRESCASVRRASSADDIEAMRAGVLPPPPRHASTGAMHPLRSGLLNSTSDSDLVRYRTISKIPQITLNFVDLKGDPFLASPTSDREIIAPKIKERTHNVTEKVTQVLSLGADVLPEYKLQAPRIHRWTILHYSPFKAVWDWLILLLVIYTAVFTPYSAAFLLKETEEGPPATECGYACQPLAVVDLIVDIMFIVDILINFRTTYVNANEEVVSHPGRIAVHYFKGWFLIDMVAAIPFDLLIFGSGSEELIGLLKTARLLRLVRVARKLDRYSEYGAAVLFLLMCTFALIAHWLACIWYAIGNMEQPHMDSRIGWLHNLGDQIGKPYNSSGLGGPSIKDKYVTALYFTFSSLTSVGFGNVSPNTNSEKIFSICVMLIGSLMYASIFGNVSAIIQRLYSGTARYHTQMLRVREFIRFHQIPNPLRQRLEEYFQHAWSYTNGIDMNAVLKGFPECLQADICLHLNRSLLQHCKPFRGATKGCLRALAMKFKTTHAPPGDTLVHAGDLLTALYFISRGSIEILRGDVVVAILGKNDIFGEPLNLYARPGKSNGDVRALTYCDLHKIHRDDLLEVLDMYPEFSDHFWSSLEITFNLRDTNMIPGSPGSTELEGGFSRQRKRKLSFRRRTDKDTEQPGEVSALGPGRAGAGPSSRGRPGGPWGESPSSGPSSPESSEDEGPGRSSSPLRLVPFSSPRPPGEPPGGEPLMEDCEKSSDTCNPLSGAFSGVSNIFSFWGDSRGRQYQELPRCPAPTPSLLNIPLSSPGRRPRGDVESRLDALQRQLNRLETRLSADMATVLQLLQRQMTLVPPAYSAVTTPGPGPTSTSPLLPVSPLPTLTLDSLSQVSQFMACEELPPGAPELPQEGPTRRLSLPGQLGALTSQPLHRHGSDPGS

Structure (SMILES)	hERG current change (%, negative = inhibition) at 1uM [%]
Cc1c(NC(=O)c2ccc(Cl)s2)c(=O)n(-c2ccccc2)n1C	8.57
Cc1cc(/C=C(/C#N)c2cccc(Cl)c2)c(C)n1C	10.4
O=C(CN1CCN(S(=O)(=O)c2ccc(F)cc2)CC1)Nc1cc(C(F)(F)F)ccc1Cl	8.76
CN(C)CCN(C(=O)c1ccc(S(=O)(=O)N(C)CC2CCCO2)cc1)c1nc2cc3c(cc2s1)OCO3.Cl (centres unmarked)	0.275
CCN1CCN(C(=O)CN2C(=O)COc3ccc(S(=O)(=O)N4CCOCC4)cc32)CC1	13.5
O=C(N/N=C/c1cccc(Oc2ccccc2)c1)c1cccc(Br)c1	11.3
COc1cc(C(C)=O)ccc1Oc1cnccn1	18.6
Cc1ccccc1C(=O)Nc1ccnn1C1CCN(CCCc2ccccc2)CC1	-84.5
CNC(=O)[C@H](C)[C@@H]1C[C@@]1(C)[C@@H](NC(=O)OCc1ccccc1)c1ccccc1	13.5
CCN1C(=O)[C@H]2[C@@H](c3ccc(-c4ccc5c(c4)OCO5)cc3)N3CCC[C@@]3(C(=O)OC)[C@H]2C1=O.O=C(O)C(F)(F)F	7.54
COc1ccc(Cn2c(CCC(=O)O)nc3cccnc32)cc1	24.8
COc1cc2cc(Oc3ccc4ccc(=O)oc4c3)c(=O)oc2cc1OC(=O)/C=C/c1ccccc1	-5.05
CCn1cc(C(=O)NCc2cccnc2)c2cc(OC)c(OC)cc2c1=O	6.13
CNS(=O)(=O)c1cccc(C(=O)OCC(=O)c2ccc(S(=O)(=O)N3CCCCC3)cc2)c1	12.8
O=C(Nn1c(-c2ccc(F)cc2)nc2ccccc2c1=O)c1cccnc1	12.1
COC(=O)C1=C(c2ccc(F)cc2OCc2ccccc2)C[C@@H]2CC[C@H]1N2C(=O)NCc1ccc2c(c1)OCO2	5.53
Cc1cc(Cl)ccc1NC(=O)CN1C(=O)NC2(CCCC2)C1=O	4.42
CCCCOc1ccc(C2CCC(C(C)=O)C(C)C2)cc1 (centres unmarked)	2.33
Cc1ccsc1C(=O)C1CCCN(Cc2cn(C)nc2C)C1 (centres unmarked)	-9.22
COc1ccc(NS(=O)(=O)c2cccc(C(=O)NNC(=O)COc3ccccc3)c2)cc1	6.25
O=C1CCCN1CC(O)CS(=O)(=O)Cc1ccc(Cl)c(Cl)c1 (centres unmarked)	3.4
CCOc1cc(C2C(C#N)=C(N)Oc3n[nH]c(-c4ccncc4)c32)cc([N+](=O)[O-])c1O (centres unmarked)	24.5

Structure (SMILES)	hERG current change (%, negative = inhibition) at 1uM [%]
O=C(Nc1cccc(F)c1)c1cccc2c1C(=O)N(C1CCCCC1)C2	14
CCOc1ccc(-c2c(=O)n(OCc3ccccn3)c3ccccc3[n+]2[O-])cc1	12.6
O=C(Nc1nccs1)c1ccc(Br)o1	2.31
CCOC(CNC(=O)C(=O)Nc1cc2c3c(c1)CCN3C(=O)CC2)OCC	-14.9
CCC(Sc1nc(-c2ccccc2)c(C#N)c(=O)[nH]1)C(=O)Nc1nnc(C)s1 (centres unmarked)	4.53
Cl.Fc1cccc(C2NCc3ccccc3-n3cccc32)c1 (centres unmarked)	7.86
COc1ccc2cc(C(c3nnnn3C(C)(C)C)N3CCc4ccccc4C3)c(=O)[nH]c2c1 (centres unmarked)	6.1
S=c1[nH]nc(COc2ccc(Cl)cc2)o1	22.9
Cc1ccc(NC(=O)c2ccc3nc[nH]c3c2)nc1	10.6
CC(Cc1ccccc1)N1Cc2ccccc2C1 (centres unmarked)	9.38
CCOP(=O)(OCC)/C(C#N)=C/c1ccc(Br)cc1	9.34
CN(c1ccccc1)S(=O)(=O)c1cccc(NC(=O)Cc2ccc(Cl)cc2)c1	16.4
CC(C)Cn1c(CN2CCN(C(=O)c3ccco3)CC2)nc2c1c(=O)n(C)c(=O)n2C	6.08
Clc1ccc(-c2nnc3sc(-c4ccc(Br)o4)nn23)cc1	9.66
CC(=Nc1ccccc1N)c1c(O)n(C)c(=O)n(C)c1=O	13.3
O=c1c2c(-c3ccc([N+](=O)[O-])cc3)ccnc2[nH]n1-c1ccccc1	1.24
O=C(/C=C/c1ccccc1)N1CCC[C@H]1CO	13
Cc1ccc(C(=O)c2coc3cc([N+](=O)[O-])c(O)c([N+](=O)[O-])c23)cc1	7.26
CCOC(=O)C1=C(C)N(c2ccccc2)C(=O)C1CC(=O)O (centres unmarked)	7.4
CCN(CC)c1nc2nonc2nc1N(CC)CC	9.54
O=C(N/N=C\c1ccc(O)c([N+](=O)[O-])c1)c1ccccc1-n1cccc1	10.4
CN(CC(=O)Nc1cccc(S(=O)(=O)N2CCOCC2)c1)CC(=O)Nc1ccc(Cl)c(C(F)(F)F)c1	8.96

Structure (SMILES)	hERG current change (%, negative = inhibition) at 1uM [%]
CC(=O)Nc1ccc(NC(=O)CSCCc2ccccn2)cc1	10.3
C=CCNc1nc(-c2ccccn2)nnc1-c1ccccc1	8.39
COc1ccc(N(CC(=O)N2CCc3ccccc32)S(=O)(=O)c2c(C)n[nH]c2C)cc1	-0.973
COc1ccc(-c2cc(C(=O)O)c(C)o2)cc1OC	0.404
COc1cc2nc(NC(=O)c3ccc(Cl)cc3)sc(=O)c2cc1OC	11.4
COc1ccc(CNC(=O)[C@@H]2CC=C[C@@H]3CCN(C4CC4)C(=O)[C@@H]32)cc1	8.64
N=c1c(C(=O)NCc2ccc3c(c2)OCO3)cc2c(=O)n3ccccc3nc2n1Cc1cccnc1	-51.5
O=C(O)c1cccc(Cl)n1	6.87
CN(CC(=O)Nc1cccc(F)c1)C(=O)c1cc2c(s1)CCCCC2	17.3
O=C(CN1C(=O)CCC1=O)Nc1cccc2c1C(=O)NC2=O	6.17
Cc1cc(C)n(-c2ccc(NC(=O)C3CCCCN3C(=O)c3occc3C)cc2)n1 (centres unmarked)	3.61
COc1ccc(-c2csc(Nc3cccnc3)n2)cc1	22.4
O=C(O)C1CCN(C(=O)c2ccc3c(c2)OCO3)CC1	5.91
Cc1c(N(C)C(=O)C2CCCN2S(=O)(=O)c2ccccc2)c(=O)n(-c2ccccc2)n1C (centres unmarked)	16.2
CCC(C)C1C(C#N)=C(N)Oc2n[nH]c(C)c21 (centres unmarked)	14.1
COC(=O)c1c(NC(=O)c2c(OC)cccc2OC)sc2c1C(C(=O)OC)CC2 (centres unmarked)	8.6
COc1ccc(-c2csc(NC(=S)NC(=O)c3cccs3)n2)cc1Br	11.5
Cc1noc(C)c1CSc1ccccc1C(=O)OC(C)C(N)=O (centres unmarked)	22.5
CC(=O)c1cc(CN2CCCCC2)cc(OC(C)C)c1.Cl	9.09
O=C1COc2ccc(C(=O)COC(=O)Cc3ccsc3)cc2N1	-11
CSCCC(NS(=O)(=O)c1cccs1)C(=O)NCc1cccs1 (centres unmarked)	-1.88
CCn1ccnc1CN(C)Cc1c(C(=O)N2CCCCCCC2)nc2ccc(Cl)cn12	-15.2

Structure (SMILES)	hERG current change (%, negative = inhibition) at 1uM [%]
Cc1cccn2c(CNCC(C)Oc3cccnc3)c(C(=O)N3CCOCC3)nc12 (centres unmarked)	9.46
COc1cccc(OCc2cc(C(=O)N3CCCC3c3ccccn3)no2)c1 (centres unmarked)	11.1
O=C(Cn1nc(C(=O)O)c2ccccc2c1=O)NCC1CCCO1 (centres unmarked)	14.8
CC(C)COc1ccc(C(=O)CCN2CCCCC2)cc1.Cl	-22.9
COc1ccc(C(=O)NCc2nnc(SCC(=O)N3CCCc4ccccc43)o2)cc1OC	11.3
O=C(CSc1nc(-c2ccccc2)cc(=O)[nH]1)N1CCOCC1	11.5
O=C1CC(N(O)c2ccccc2)C(=O)N1c1ccc(Cl)c(Cl)c1 (centres unmarked)	10.5
O=C(CNC(=O)c1ccccc1)NCCc1nc2ccccc2[nH]1	5.84
O=C(O)c1ccccc1N=Nc1ccc(O)cc1	5.93
O=C(CCSCCc1ccccn1)Nc1cccc([N+](=O)[O-])c1	0.209
O=S(=O)(c1ccc(F)cc1)N1CCn2c(nc3ccccc32)C1	18.9
Cc1nc(Oc2ccccc2)c2ccsc2n1	2.99
CN1CCC(N(C)C(=O)Cc2ccccc2[N+](=O)[O-])CC1	13.3
COC(=O)c1sc(NC(=O)CSc2nc3cccnc3n2C)nc1C	3.03
COC(=O)c1cc(NC(=O)c2cc(C(C)(C)C)nn2Cc2ccc(F)cc2)ccc1N1CCOCC1	6.17
Cc1[nH]nc(-c2ccc(OCc3cnn(-c4ccccc4)c3)cc2O)c1Oc1ccc(F)cc1	19.4
O=C(/C=C/c1ccc(Cl)c(C(F)(F)F)c1)N1CCN(c2ccccn2)CC1	2.66
Clc1ccc(OCc2nnc(-c3ccccc3Br)o2)cc1	3.75
Cc1cc(NC(=O)C(C)SCC(=O)Nc2ccccc2N2CCCC2)no1 (centres unmarked)	20.9
Cc1nc(COC(=O)c2c(C)nn(-c3ccccc3)c2C)cs1	8.52
